The RNAGym collection of RNA variant scans (doi:10.1073/pnas.2313332121)
Variants at the background level are over-represented here.

B1: TPR 5TU (parent)
chain: GGAUCUUCUCGAUCUAACAAAAAAGACAAAUCUGCCACAAAGCUUGAGAGCAUCUUCGGAUGCAGAGGCGGCAGCCUUCGGUGGCGCGAUAGCGCCAACGUUCUCAACUAUGACACGCAAAACGCGUGCUCCGUUGAAUGGAGUUUAUCAUG

Variants of: B1
Assay: polymerase ribozyme fitness, log enrichment relative to wild type (log ratio); higher = more active; in vitro selection for triplet polymerase activity
How it was run: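 Libraries of mutants in each subunit of a heterodimeric triplet polymerase ribozyme were generated by PCR and transcribed. In triplicate, each went through one in vitro selection round: annealing with biotinylated primer, partner subunit and triplets; frozen incubation at −7 °C; gel excision of extended constructs; streptavidin-bead capture; RT-PCR. Fitness, taken from Illumina sequencing of input and output libraries, is the logarithm of a genotype's enrichment over wild-type enrichment, averaged across replicates with inverse-variance weights. The logarithm is base 2, and genotypes needed ≥10 input reads and ≥1 read per output to be kept.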

Variant | polymerase ribozyme fitness (log ratio)
GGAUCUUCUCGAUCUAACGAAAAAGACAAAUCUGCCACAAAGCUUGAGAGCAUCAUCGGAUGCAGAGGCGGCAGCCUUCGGUGGCGAGAUAGCGCCAACGUUCUCGACUAUGACACGCAAAACCCGUGCUCCGUUCAAUGGAGUUUAUACUG [A19G U55A C87A A106G G124C G136C C149A A150C] | ≤ -4.2
GGAUCUUCUCGAUCUAACGAAAAAGACAAAUCUGCCACAAAGCUUGAGAGCAUCUACGGAUGCAGAGGCGGCAGCCUUCGGUGGCACGAUAGCGCCAACGUUCUCAACUAUGACACGCAAAACGCGUGCUCCGUUGAAUGUAGUUUAUCAUG [A19G U56A G86A G141U] | -1.64
GGAUCUUCUCGAUCUAACGAAAAAGACAAAGCUGCCACAAAGCAUGAGAGCAUCUUCGGAUGCAGAGGCGGCAGCCUUCAGUGGCGCGAUAGCGCCAACGUUCUCAACUAUGACACGCAAAAGGCGUGCUCCGUUGAAUGCAGUUUAUCAUG [A19G U31G U44A G80A C123G G141C] | ≤ -4.2
GGAUCUUCUCGAUCUAACUUAAAAGACAAAUCUGCCACAAAGCUUGAGACCAUUGUCGGAUGCAGAGGCGGCAGCAUUCGGUGGAGCGAUAGCGCCAACGUUUUCAACUAUGACACGCAAAACGCGUGCUCCGUUGAAUGGAGAUUAUCAUG [A19U A20U G50C C54U U55G C76A C85A C103U U144A] | ≤ -4.2
GGAUCUUCUCGAUCUAACGAAAAAGACAAAUCUGCCACAAAGCUUGAGAGCAACUUCGGAGGCAGAGGGGGCAGCCUUCGGUGGCGCGAUAGAGCCAACGUUCUCAACUAUGACACGCAAAACGGGUGCUCCGUUGAAUGGAGUUUAUCAUG [A19G U53A U61G C69G C93A C125G] | ≤ -4.2
GGAUCUUCUCGAUCUAACGAAAAAGACAAAUCUGCCACAAAGCUUGAGAGCAUCUUCGGAUGCAGAGGCGGCAGCCUUCUGUGGCGCGAUAGCGGAAACGUUCUCAACUAUGACACGCAAAACGCGUGCUCCGUUGAAUGGAGUUUAUCAUG [A19G G80U C95G C96A] | ≤ -4.2
GGAUCUUCUCGAUCUAACGAAAAAGACAAAUCUGCCACAAAGCUAGAGAGCAUCUUCGGAUGCAGAGGUGGCAGCCAUCGGUGGCGCGAUAGCGCCAACGUUCUCAACUAUGACACGCAAAACGCGUGCUCCGUUGAAUGCAGUUUAUCAUG [A19G U45A C69U U77A G141C] | ≤ -4.2
GGAUCUUCUCGAUCUAACUCAAAAGACAAAUCUGCCACAAAGCUUGAGAGCAUCUUCGAAUGCAGAGGCGGCAGCCUUCGGUGGCGCGUUAGCGUCAACGUUCUCAACUAUGACACGCAAAACGCCUGCUCCGUUGAAUGGAGUUUAUCAUG [A19U A20C G59A A89U C95U G126C] | -0.274
GGAUCUUCUCGAUCUAACUACAAAGACAAAUCUGCCACAAAGCUUGAGAGCAUCUUCGGAUGCAGAGGCGGCAUCCUUCGGUGACGCGAUAGCGCCAACGUUCUCAACUAUGAUACGCAAAACGCGUGCUCCGUUGAAGGGAGUUUAUCAUG [A19U A21C G74U G84A C114U U139G] | ≤ -4.2
GGAUCUUCUCGAUCUAACGAAAAAGACAAAUCUGCCACAAAGCUUGAGAGCAUCUUCGGAUGCAGAGGCGGCAGCCUUCGGUCGCGUGAUAGCGCCAACGGUCUCAACUAUGACACGCAAAACGCGUGCUCCGUUGAAUGGAGUUUAUCAUG [A19G G83C C87U U101G] | ≤ -4.2
GGAUCUUCUCGAUCUAACUCAAUAGAGAAAUCUGCCACAAAGCUUGAGAGCAUCUUCGGAUCCAGAGGCGGCAGCCUUCGGUGGCGCGAUAGCGCCAACGUUCUCAACUAUGACACGCAAAACGCGUGCUCCGUUGAAUGGAGUUUAUCAUG [A19U A20C A23U C27G G62C] | ≤ -4.2
GGAUCUUCUCGAUCUAACGAAAAAGACAAAUCUGCCACAAAGCUUGAGAGCAUCAUUGGAUGCAGAGGCGGCAGCCGUCGGUGGCGCGAUAGGGCCAACGUUCUCAACUAUGACGCGCAAAUCGCGUGCUCCGUUGAAUGGAGUUCAUCAUG [A19G U55A C57U U77G C93G A115G A122U U146C] | ≤ -4.2
GGAUCUUCUCGAUCUAACGAAAAAGACAAAUCUGCCACAAAGCUUGAGAGCAUCUUCGGAUGCAGAGGCGGCAGCCUUCGGUCGCGCGAUAGCGGCAACGUUCUCAACUAUGACACGCAAAACGCGUGCUCCGUUGAAUGGAGUUUAUCAUG [A19G G83C C95G] | ≤ -4.2
GGAUCUUCUCGAUCUAACGAAAAAGACAAAUCUGCCACAAAGCUUGAGAGCAUCUUCGUAUGCAGAGGCGGCAGCAUUCGGUGGCGCGAUAGCGCUAACGUUCUCAACUAUGACACGCAAAACGCGUGCUCCGUUGAAUGGAGUUUAUCAUG [A19G G59U C76A C96U] | -1.25
GGAUCUUCUCGAUCUAACUUAAAAGACAUAUCUGCCAAAAAGCUUGAGAGCGUCUACGGAUGCAGAGGCGGCAGCCUUCGGUGGCGCGAUAGCGCCAACGUUCUCAACUAUGACACGCAAAACGCGUGCUCCGUUGAAUGGAGUUUAUCAUG [A19U A20U A29U C38A A52G U56A] | ≤ -4.2
GGAUCUUCUCGAUCUAACGAAAAAGACAAAUCUGCCACAAAGCGUGAGAGCAUCUUCGGUUGCAGAGGCGGCAGCCUUCGGUGGCGGGAUAGCGCCAACGUUCUCAACUAUGACACGCAAAACGCGUGCUCCGUUGAAUAGAGUUUUUCAUG [A19G U44G A60U C87G G140A A147U] | ≤ -4.2
GGAUCUUCUCGAUCUAACUUAAAAGAGAACUCUGCCACAAAGCUUGAGAGCAUCUUCGGAUGCAGAGGCGGCAGCCUUUGGUGGCGCGAUAGCGCCAACGUUAUCAACUAUGAUACGCAAAACGCGUGCUCCGUUGAAUGGAGUUUAUCAUG [A19U A20U C27G A30C C79U C103A C114U] | ≤ -4.2
GGAUCUUCUCGAUCUAACGAAAAAGACAAAUCUGCCACAAAGCUUGAGAGCAUCUACGGAUGCAGAGGCGGCAGCCUUCGGUGGCGCGAUAGCGCCAACGUUCUCAACUAUGACACGCAGAACGCGUGCUCCGUUGAAUGGAGUUUAUCAAG [A19G U56A A120G U151A] | ≤ -4.2
GGAUCUUCUCGAUCUAACUACAAAGACAAAUCUGCCACAAAGCUUGAGAGCAUUUUCGGAUGCAGAGGCGGCAGCCUUCGGUGGCGCGAUAGCGCCAACGUUCUCAACUAUGACACGCAAAACGCGUGCUCCGAUGAAUGGAGUUUAUCAUG [A19U A21C C54U U134A] | ≤ -4.2
